# Hit rate of the full screen: of about 370,000 compounds, about 150 (0.041%) were called active. This list was built around the results that the source calls inconclusive (neither active nor inactive); the mix of calls is not that of the screen. Calls follow the shape of the dose curve; as a rule, active = well fitted inhibition curve with a large enough effect; inconclusive = small, poorly fitted or top-dose-only effect; inactive = flat fitted curve, though single readings scatter. Potencies of inconclusive entries are left out as doubtful fits.
# Target: Beta-lactamase (Escherichia coli (strain K12)) (UniProt P00811)
# Chain of UniProt P00811 (P00811 whole entry, looked up): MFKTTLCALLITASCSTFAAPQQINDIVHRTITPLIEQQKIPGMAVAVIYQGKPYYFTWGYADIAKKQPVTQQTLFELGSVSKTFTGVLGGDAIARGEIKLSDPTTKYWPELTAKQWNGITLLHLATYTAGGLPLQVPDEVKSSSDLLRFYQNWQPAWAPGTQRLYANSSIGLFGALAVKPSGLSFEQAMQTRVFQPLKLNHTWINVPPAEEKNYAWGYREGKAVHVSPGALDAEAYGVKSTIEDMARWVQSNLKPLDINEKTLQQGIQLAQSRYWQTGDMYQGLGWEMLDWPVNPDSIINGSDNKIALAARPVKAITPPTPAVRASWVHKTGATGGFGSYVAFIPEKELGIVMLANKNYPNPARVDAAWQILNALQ
# Test: qHTS Inhibitors of AmpC Beta-Lactamase (assay with detergent); also: nearly all actives have a fitted effect of over 25% in size;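 as to activity change, negative = inhibition: 0% = no-compound wells and -100% = no-enzyme wells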
# Conditions: AmpC hydrolysis of nitrocefin, absorbance 480 nm, 0.01% Triton; activity change, negative = inhibition: at 114 µM (top of the series)
# Method in brief: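 20 mM phosphate pH 7.0 + 0.01% (detergent screen) or 0.0001% Triton X-100; 5.3 nM AmpC reagent; cpd preinc 15 min RT; nitrocefin (800 uM stock) to start; A480 q20 s × 4 min; Activity was normalised to no-enzyme and no-compound control wells.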
# Potency is read from the fitted curve at half-maximal effect; tags tell the direction and shape of the fitted curve.
SMILES,Potency,"activity change, negative = inhibition"
NC(=O)c1ccc(NC(=O)CSc2nnc(-c3ccc4c(c3)OCO4)o2)cc1,"inconclusive [inhibitor, full curve, poor fit]",
CCn1c(-c2cc(-c3cc(C)ccc3C)nc3ccccc23)n[nH]c1=S,"inconclusive [inhibitor, full curve]",
CCOc1ccc(C2=CS/C(=C(\C#N)c3nnc4n3CCCCC4)N2CC)cc1,"inconclusive [inhibitor, partial curve]",
CN(C)S(=O)(=O)Oc1ccc(Cl)cc1C(=O)Nc1cccc(C(F)(F)F)c1,inactive,
CCOC(=O)c1cccc(C(=O)Oc2ccccc2)n1,"inconclusive [inhibitor, full curve, poor fit]",
N#C/C(=N\Nc1cccc(F)c1)C(=N)N1CCCCCC1,"inconclusive [inhibitor, full curve, poor fit]",
COc1ccc(S(=O)(=O)CCC(=O)N(C)c2ccc(OC)cc2OC)cc1,"inconclusive [inhibitor, full curve, poor fit]",
CN(C(=O)CC1C(=O)NCCN1Cc1c(F)cccc1Cl)C1CCOCC1 (centres undefined),inactive,
O=C(COC(=O)CCC(=O)c1ccc(Cl)cc1)NCc1ccco1,"inconclusive [inhibitor, partial curve, poor fit]",
Cc1cccc(Cl)c1NC(=O)N1CCN(c2ccnc3cc(Cl)ccc23)CC1,inactive,
COc1ccc(S(=O)(=O)N2CCN(C(=O)CN3C(=O)NC(C)(C)C3=O)CC2)cc1,"inconclusive [inhibitor, full curve, poor fit]",
CC[C@@]12C(=O)N(c3cccc(Cl)c3)C(=O)N1[C@H](c1ccc(Br)cc1)[C@@H]1C(=O)N(C(C)(C)C)C(=O)[C@@H]12,"inconclusive [inhibitor, full curve, poor fit]",
CCSc1nnc(-c2ccc(Cl)cc2)c2ccccc12,"inconclusive [inhibitor, partial curve, poor fit]",
CCCCNC(=O)CSc1nc2cc3c(cc2c(=O)n1CCCC(=O)NCCc1ccc(OC)c(OC)c1)OCO3,"inconclusive [inhibitor, single point]",
c1ccc2c(c1)NC1(CCCCC1)n1c-2nc2ccccc21,"inconclusive [inhibitor, partial curve, poor fit]",
CCC(=O)N1CCc2cc(S(=O)(=O)NC(C(=O)NCCc3ccc(OC)c(OC)c3)C(C)C)ccc21 (centres undefined),inactive,
C[C@@H]1NC(=O)c2cc([N+](=O)[O-])cc(I)c2OCC[C@@H](C(N)=O)NC(=O)[C@H](CCC(=O)O)NC1=O,"inconclusive [inhibitor, partial curve, poor fit]",
COc1cc(/C=C(\C#N)c2nc3ccccc3[nH]2)ccc1Oc1ccc([N+](=O)[O-])cn1,inactive,
Cc1ccc(OCC(=O)NCCCNC(=O)c2cccnc2)cc1C,"inconclusive [inhibitor, full curve, poor fit]",
COC(=O)c1ccccc1NC(=O)c1ccc(COc2cccc3ccccc23)o1,inactive,
CC1CCN(S(=O)(=O)c2ccc(NC(=O)c3cccs3)cc2)CC1,"inconclusive [inhibitor, full curve, poor fit]",
CNC(=O)COC(=O)c1cc(-c2ccco2)nc2ccccc12,inactive,

SMILES,Potency,"activity change, negative = inhibition"
O=C(Cn1c(=O)n(CCc2ccccc2)c(=O)c2cccnc21)Nc1ccc(F)cc1,inactive,
O=S(=O)(c1cccs1)N1CCN(S(=O)(=O)c2cccs2)CC1,"inconclusive [inhibitor, single point]",
CSc1cccc(CN2CCC(CCC(=O)NC3CC3)CC2)c1,"inconclusive [inhibitor, partial curve, poor fit]",
CO/N=C/c1c(-c2ccc(Cl)cc2)nc2cc(C)ccn12,"inconclusive [inhibitor, full curve]",
O=C(COC(=O)C1CC2C=CC1C2)NCc1ccco1 (centres undefined),inactive,
CN(C)S(=O)(=O)c1ccc(Cl)c(NC(=O)CSc2nc3c(cc2C#N)C(=O)CCC3)c1,"inconclusive [inhibitor, full curve, poor fit]",
COC(=O)CN(C)C(=O)c1ccccc1OC1CCN(S(C)(=O)=O)CC1,inactive,
CCOC(=O)C1=C(C)Nc2ncnn2C1c1cccs1 (centres undefined),"inconclusive [inhibitor, single point]",
COc1cc(OC)cc(C(=O)NNC(=O)CCNS(=O)(=O)c2ccc(C)c(C)c2)c1,"inconclusive [inhibitor, full curve]",
Cc1cc(S(=O)(=O)NCc2ccc(N3CCN(C)CC3)cc2)c(C)s1,"inconclusive [inhibitor, full curve, poor fit]",
O=c1c2ccccc2c(C=NCCCN2CCOCC2)c(O)n1Cc1ccccc1,"inconclusive [inhibitor, full curve, poor fit]",
CCOc1ccccc1-n1c(SCC(=O)NC)nnc1-c1ccco1,"inconclusive [inhibitor, single point]",
Cc1cc(Cl)cc2sc(NC(=O)c3ccco3)nc12,"inconclusive [inhibitor, partial curve, poor fit]",
Cc1nn(-c2nnc(C)c(=O)[nH]2)c(C)c1SCC(=O)Nc1ccc(C(C)C)cc1,"inconclusive [inhibitor, partial curve]",
O=C(NC1CCCCC1)c1ccc(S(=O)(=O)c2ccccc2Cl)c([N+](=O)[O-])c1,"inconclusive [inhibitor, full curve, poor fit]",
CCC1CCCCN1S(=O)(=O)c1ccc(NC(=O)c2nc(S(C)(=O)=O)ncc2Cl)cc1 (centres undefined),"inconclusive [inhibitor, partial curve, poor fit]",
Clc1ccc(-c2nnc3sc(-c4ccccn4)nn23)cc1,inactive,
COc1cc(OC)cc(C(=O)Nc2ccccc2C(=O)N2CCCC2)c1,"inconclusive [inhibitor, full curve, poor fit]",
Nc1nc(Cl)cc(Sc2ccc3ccccc3c2)n1,"inconclusive [inhibitor, partial curve]",
Cc1cc(C)c(OCCCCN(C)Cc2ccccc2)c(C)c1,inactive,
Cc1ccc(NC(=S)NC(=O)/C=C/c2ccc(Cl)cc2)cc1,,inconclusive: -15.7% [inhibitor]
CC12CCC(=O)N1C(C(=O)N1CCN(S(=O)(=O)c3ccc(F)c(F)c3)CC1)CS2 (centres undefined),"inconclusive [inhibitor, full curve, poor fit]",

SMILES,Potency,"activity change, negative = inhibition"
COc1ccc(OC)c(S(=O)(=O)Nc2ccc(OCC(=O)O)cc2)c1,"inconclusive [inhibitor, full curve, poor fit]",
Cc1onc(-c2ccc3c(c2)OCO3)c1-c1ccc2[nH]ccc2c1,"inconclusive [inhibitor, partial curve, poor fit]",
CCOc1ccc(C(=O)NC2CCN(S(C)(=O)=O)CC2)cc1,"inconclusive [inhibitor, full curve, poor fit]",
Cc1cc(NC(=O)c2ccccc2)n(-c2nc3ccccc3[nH]2)n1,"inconclusive [inhibitor, partial curve, poor fit]",
CCC(=O)Nc1ccc(NC(=O)C23CC4CC(CC(C4)C2)C3)cn1,"inconclusive [inhibitor, full curve, poor fit]",
Cc1sc2nc(-c3cccnc3)nc(Cl)c2c1-c1ccccc1,"inconclusive [inhibitor, full curve, poor fit]",
COc1ccc([C@@H]2CC=C(C(=O)O)[C@H](c3ccc(Cl)cc3)N2S(=O)(=O)c2ccc(Cl)cc2)cc1,"inconclusive [inhibitor, partial curve]",
O=C(NNC(=O)c1ccccc1F)c1ccc(-c2ccc(Cl)cc2)o1,"inconclusive [inhibitor, single point]",
COc1ccccc1CNC(=O)c1cc2c(=O)oc3ccc(C)cc3c2s1,"inconclusive [inhibitor, single point]",
N#Cc1ccc(-c2csc(NNC(=O)c3ccccc3)n2)cc1,inactive,
CCCCCn1c(=O)c(C(=O)Nc2ccccn2)c(O)c2ccccc21,inactive,
CC(=O)NC1(c2cccc(F)c2)CCN(C(=O)Nc2ccc(C#N)cc2)CC1,"inconclusive [inhibitor, single point]",
COc1ccccc1C(=O)n1nc(-c2ccccc2)nc1N,"inconclusive [inhibitor, single point]",
O=C(O)CCCNC(=O)c1ccccn1,"inconclusive [inhibitor, full curve, poor fit]",
C/C(O)=C(\C#N)C(=O)Nc1cc(Br)ccc1Br,"inconclusive [inhibitor, full curve]",
COc1cc(C(CCN2CCCC(C)C2)c2c(OC)cc(OC)c3c2OC(=O)CC3c2ccc(N(C)C)cc2)cc(OC)c1OC (centres undefined),inactive,
Cc1cc(SCCC(=O)O)nc2c(C)cccc12,"inconclusive [inhibitor, full curve, poor fit]",
Cc1ccc2ccc3ccc(C)nc3c2n1,"inconclusive [inhibitor, partial curve]",
Cc1cccn2c(=O)nc(SCC(=O)NCc3ccc(F)cc3)nc12,"inconclusive [inhibitor, single point]",
O=C1C=C(Nc2ccccc2)c2ccccc2C1=O,"inconclusive [inhibitor, full curve, poor fit]",

# From PubChem BioAssay AID485294 (National Center for Advancing Translational Sciences (NCATS), 2010)
